The IC50 comes from the fitted curve, where viability falls to half of the control; fits outside the tested doses are given as limits. The AUC spans the tested range (256-fold, ending at the top dose) of the same fit: 1 means no effect, lower means more sensitive. An inferred top dose was calculated from the reported fits.
Assays:
SB590885 = compound: CN(C)CCOc1ccc(-c2nc(-c3ccncc3)c(-c3ccc4c(c3)CC/C4=N\O)[nH]2)cc1 [SB590885]; test: Viability of human cancer cell lines after 72 h of drug (GDSC screen); settings: top dose 5 µM; top dose inferred
Protocol: (§1)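 Human cancer cell lines in 384-well plates, medium with 10% serum, drug for 72 h over a 256-fold dose range (nine 2-fold or five 4-fold steps up to the top dose). Adherent lines were fixed and stained with the nucleic acid dye Syto60, suspension lines read with resazurin; signal relative to control wells, capped at 0 and 100%. One two-parameter sigmoid per drug and line, fitted in a mixed model over all curves with the slope shared within a line.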

PD-173074 = compound: CCN(CC)CCCCNc1ncc2cc(-c3cc(OC)cc(OC)c3)c(NC(=O)NC(C)(C)C)nc2n1 [PD-173074]; test: as above; settings: top dose 2 µM; top dose inferred
Protocol: as §1

Cell Line	AUC (SB590885)	IC50 (SB590885) [nM]	AUC (PD-173074)	IC50 (PD-173074) [nM]
NCI-H1688 (small cell lung carcinoma, adherent)	0.987	> 5000	0.98	> 2000
NCI-H2452 (mesothelioma, adherent)	0.984	> 5000	0.958	> 2000
Hs683 (glioma, adherent)	0.979	> 5000	0.957	> 2000
Hep 3B2_1-7 (liver, adherent)	0.875	4900	0.604	241
TGBC11TKB (stomach, adherent)	0.992	> 5000	0.991	> 2000
NCC010 (kidney, adherent)	0.986	> 5000	0.986	> 2000
HuH-7 (liver, adherent)	0.864	4360	0.82	1150
OVCA420 (ovary, adherent)	0.982	> 5000	0.982	> 2000
HCC-15 (lung squamous cell carcinoma, adherent)	0.934	> 5000	0.976	> 2000
H3255 (lung adenocarcinoma, adherent)	0.955	> 5000	0.976	> 2000
HCC-78 (lung adenocarcinoma, adherent)	0.975	> 5000	0.963	> 2000
DOK (head and neck, adherent)	0.882	> 5000	0.936	> 2000
PCI-4B (head and neck, adherent)	0.948	> 5000	0.977	> 2000
LS-180 (large intestine, adherent)	0.93	> 5000	0.936	> 2000
SNU-407 (large intestine, adherent)	0.983	> 5000	0.983	> 2000
H3118 (head and neck, adherent)	0.957	> 5000	0.964	> 2000
PL4 (pancreas, adherent)	0.97	> 5000	0.987	> 2000
T84 (large intestine, adherent)	0.989	> 5000	0.989	> 2000
HuCCT1 (biliary tract, adherent)	0.973	> 5000	0.973	> 2000
SKN-3 (head and neck, adherent)	0.947	> 5000	0.913	> 2000
CCF-STTG1 (glioma, adherent)	0.988	> 5000	0.985	> 2000
M059J (glioma, adherent)	0.985	> 5000	0.974	> 2000
LK-2 (lung squamous cell carcinoma, adherent)	0.988	> 5000	0.866	1620
Detroit562 (head and neck, adherent)	0.986	> 5000	0.988	> 2000
MDA-MB-157 (breast, adherent)	0.988	> 5000	0.967	> 2000

Cell Line	AUC (SB590885)	IC50 (SB590885) [nM]	AUC (PD-173074)	IC50 (PD-173074) [nM]
AGS (stomach, adherent)	0.932	> 5000	0.974	> 2000
NCI-H929 (myeloma, suspension)	0.927	> 5000	0.946	> 2000
A2780 (ovary, semi-adherent)	0.984	> 5000	0.939	> 2000
BICR78 (head and neck, adherent)	0.983	> 5000	0.96	> 2000
HT-3 (cervix, adherent)	0.987	> 5000	0.987	> 2000
KLE (endometrium, adherent)	0.978	> 5000	0.978	> 2000
SK-CO-1 (large intestine, adherent)	0.891	> 5000	0.989	> 2000
A704 (kidney, adherent)	0.989	> 5000	0.905	> 2000
H2591 (mesothelioma, adherent)	0.981	> 5000	0.761	920
DIFI (large intestine, adherent)	0.988	> 5000	0.988	> 2000
BFTC-905 (bladder, adherent)	0.929	> 5000	0.99	> 2000
SCC90 (head and neck, adherent)	0.981	> 5000	0.977	> 2000
T98G (glioma, adherent)	0.99	> 5000	0.969	> 2000
DOV13 (ovary, adherent)	0.984	> 5000	0.973	> 2000
PFSK-1 (medulloblastoma, adherent)	0.982	> 5000	0.98	> 2000
RCC-AB (kidney, adherent)	0.981	> 5000	0.975	> 2000
KYSE-220 (oesophagus, adherent)	0.986	> 5000	0.986	> 2000
TMK-1 (stomach, adherent)	0.986	> 5000	0.986	> 2000
OVK-18 (ovary, adherent)	0.983	> 5000	0.899	> 2000
OC-314 (ovary, adherent)	0.991	> 5000	0.991	> 2000
SW1417 (large intestine, adherent)	0.969	> 5000	0.986	> 2000
H2373 (mesothelioma, adherent)	0.983	> 5000	0.978	> 2000
OACM5-1 (oesophagus, semi-adherent)	0.985	> 5000	0.986	> 2000
Capan-2 (pancreas, adherent)	0.985	> 5000	0.984	> 2000
HCC1395 (breast, adherent)	0.985	> 5000	0.874	> 2000

Cell Line	AUC (SB590885)	IC50 (SB590885) [nM]	AUC (PD-173074)	IC50 (PD-173074) [nM]
LU-135 (small cell lung carcinoma, suspension)	0.992	> 5000	0.939	> 2000
SU-DHL-10 (B-cell lymphoma, suspension)	0.996	> 5000	0.997	> 2000
MCF7 (breast, adherent)	0.961	> 5000	0.953	> 2000
201T (lung adenocarcinoma, adherent)	0.98	> 5000	0.975	> 2000
KYSE-510 (oesophagus, adherent)	0.99	> 5000	0.981	> 2000
NCC021 (kidney, adherent)	0.981	> 5000	0.898	> 2000
NCI-H1651 (lung adenocarcinoma, adherent)	0.987	> 5000	0.986	> 2000
HCC1569 (breast, adherent)	0.944	> 5000	0.884	> 2000
647-V (bladder, adherent)	0.987	> 5000	0.98	> 2000
SW1271 (small cell lung carcinoma, adherent)	0.906	> 5000	0.969	> 2000
TCCSUP (bladder, adherent)	0.984	> 5000	0.956	> 2000
NY (osteosarcoma, adherent)	0.97	> 5000	0.925	> 2000
RO82-W-1 (thyroid, adherent)	0.983	> 5000	0.818	1550
NCI-H1048 (small cell lung carcinoma, adherent)	0.971	> 5000	0.953	> 2000
Caov-4 (ovary, adherent)	0.98	> 5000	0.98	> 2000
OSC-20 (head and neck, adherent)	0.982	> 5000	0.976	> 2000
OE21 (oesophagus, adherent)	0.953	> 5000	0.974	> 2000
MFE-296 (endometrium, adherent)	0.977	> 5000	0.837	1490
RH-18 (rhabdomyosarcoma, adherent)	0.985	> 5000	0.885	> 2000
RERF-LC-KJ (lung adenocarcinoma, adherent)	0.987	> 5000	0.982	> 2000
NCI-H2009 (lung adenocarcinoma, adherent)	0.986	> 5000	0.986	> 2000
NCI-H1781 (lung adenocarcinoma, adherent)	0.989	> 5000	0.989	> 2000
NCI-H647 (non-small cell lung carcinoma, adherent)	0.964	> 5000	0.975	> 2000
ME-180 (cervix, adherent)	0.986	> 5000	0.986	> 2000
